Measured values from paper PMC6225228, “Design, Synthesis and Evaluation of N-pyrazinylbenzamides as Potential Antimycobacterial Agents” (Molecules : A Journal of Synthetic Chemistry and Natural …, 2018).
In brackets after ≈: the same amount, converted by molar mass.

Test system: Klebsiella pneumoniae D 11750/08
Settings: 24 h

Compound | MIC KP [µM]
CC(=O)Oc1cccc(C(=O)Nc2cnc(Cl)cn2)c1 [Compound 2c-Ac] | > 125
O=C(Nc1cnc(Cl)cn1)c1cccc(O)c1 [Compound 2c] | > 500
CC(=O)Oc1ccc(C(=O)Nc2cnc(Cl)cn2)cc1 [Compound 2d-Ac] | > 125
O=C(Nc1cnc(Cl)cn1)c1ccc(O)cc1 [Compound 2d] | > 500
COc1ccccc1C(=O)Nc1cnc(Cl)cn1 [Compound 2e] | > 125
COc1cccc(C(=O)Nc2cnc(Cl)cn2)c1 [Compound 2f] | > 500
COc1ccc(C(=O)Nc2cnc(Cl)cn2)cc1 [Compound 2g] | > 125
Cc1ccc(C(=O)Nc2cnc(Cl)cn2)cc1 [Compound 2h] | > 125
CCc1ccc(C(=O)Nc2cnc(Cl)cn2)cc1 [Compound 2i] | > 125
O=C(Nc1cnc(Cl)cn1)c1ccccc1Cl [Compound 2j] | > 500
O=C(Nc1cnc(Cl)cn1)c1cccc(Cl)c1 [Compound 2k] | > 125
O=C(Nc1cnc(Cl)cn1)c1ccc(Cl)cc1 [Compound 2l] | > 125
O=C(Nc1cnc(Cl)cn1)c1ccc(Br)cc1 [Compound 2m] | > 125
COc1ccccc1C(=O)Nc1cncc(Cl)n1 [Compound 3e] | > 500
O=C(Nc1cncc(Cl)n1)c1ccccc1Cl [Compound 3j] | > 500
O=C(Nc1cncc(Cl)n1)c1cccc(Cl)c1 [Compound 3k] | > 125
CC1(C)S[C@@H]2[C@H](NC(=O)Cc3ccccc3)C(=O)N2[C@H]1C(=O)O [Pen, benzylpenicillin, reference compound] | 250 (≈ 83.6 µg/mL)
CC1(C)S[C@@H]2[C@H](NC(=O)COc3ccccc3)C(=O)N2[C@H]1C(=O)O [Phen, phenoxymethylpenicillin, reference compound] | > 500
bacitracin [reference compound] | > 500

Same assay, conditions: 48 h

Compound | MIC KP [µM]
CC(=O)Oc1cccc(C(=O)Nc2cnc(Cl)cn2)c1 [Compound 2c-Ac] | > 125
O=C(Nc1cnc(Cl)cn1)c1cccc(O)c1 [Compound 2c] | > 500
CC(=O)Oc1ccc(C(=O)Nc2cnc(Cl)cn2)cc1 [Compound 2d-Ac] | > 125
O=C(Nc1cnc(Cl)cn1)c1ccc(O)cc1 [Compound 2d] | > 500
COc1ccccc1C(=O)Nc1cnc(Cl)cn1 [Compound 2e] | > 125
COc1cccc(C(=O)Nc2cnc(Cl)cn2)c1 [Compound 2f] | > 500
COc1ccc(C(=O)Nc2cnc(Cl)cn2)cc1 [Compound 2g] | > 125
Cc1ccc(C(=O)Nc2cnc(Cl)cn2)cc1 [Compound 2h] | > 125
CCc1ccc(C(=O)Nc2cnc(Cl)cn2)cc1 [Compound 2i] | > 125
O=C(Nc1cnc(Cl)cn1)c1ccccc1Cl [Compound 2j] | > 500
O=C(Nc1cnc(Cl)cn1)c1cccc(Cl)c1 [Compound 2k] | > 125
O=C(Nc1cnc(Cl)cn1)c1ccc(Cl)cc1 [Compound 2l] | > 125
O=C(Nc1cnc(Cl)cn1)c1ccc(Br)cc1 [Compound 2m] | > 125
COc1ccccc1C(=O)Nc1cncc(Cl)n1 [Compound 3e] | > 500
O=C(Nc1cncc(Cl)n1)c1ccccc1Cl [Compound 3j] | > 500
O=C(Nc1cncc(Cl)n1)c1cccc(Cl)c1 [Compound 3k] | > 125
CC1(C)S[C@@H]2[C@H](NC(=O)Cc3ccccc3)C(=O)N2[C@H]1C(=O)O [Pen, benzylpenicillin, reference compound] | 500 (≈ 167 µg/mL)
CC1(C)S[C@@H]2[C@H](NC(=O)COc3ccccc3)C(=O)N2[C@H]1C(=O)O [Phen, phenoxymethylpenicillin, reference compound] | > 500
bacitracin [reference compound] | > 500

Test system: Klebsiella pneumoniae J 14368/08 ESBL positive
Settings: 24 h

Compound | MIC KP-E [µM]
CC(=O)Oc1cccc(C(=O)Nc2cnc(Cl)cn2)c1 [Compound 2c-Ac] | > 125
O=C(Nc1cnc(Cl)cn1)c1cccc(O)c1 [Compound 2c] | > 500
CC(=O)Oc1ccc(C(=O)Nc2cnc(Cl)cn2)cc1 [Compound 2d-Ac] | > 125
O=C(Nc1cnc(Cl)cn1)c1ccc(O)cc1 [Compound 2d] | > 500
COc1ccccc1C(=O)Nc1cnc(Cl)cn1 [Compound 2e] | > 125
COc1cccc(C(=O)Nc2cnc(Cl)cn2)c1 [Compound 2f] | > 500
COc1ccc(C(=O)Nc2cnc(Cl)cn2)cc1 [Compound 2g] | > 125
Cc1ccc(C(=O)Nc2cnc(Cl)cn2)cc1 [Compound 2h] | > 125
CCc1ccc(C(=O)Nc2cnc(Cl)cn2)cc1 [Compound 2i] | > 125
O=C(Nc1cnc(Cl)cn1)c1ccccc1Cl [Compound 2j] | > 500
O=C(Nc1cnc(Cl)cn1)c1cccc(Cl)c1 [Compound 2k] | > 125
O=C(Nc1cnc(Cl)cn1)c1ccc(Cl)cc1 [Compound 2l] | > 125
O=C(Nc1cnc(Cl)cn1)c1ccc(Br)cc1 [Compound 2m] | > 125
COc1ccccc1C(=O)Nc1cncc(Cl)n1 [Compound 3e] | > 500
O=C(Nc1cncc(Cl)n1)c1ccccc1Cl [Compound 3j] | > 500
O=C(Nc1cncc(Cl)n1)c1cccc(Cl)c1 [Compound 3k] | > 125
CC1(C)S[C@@H]2[C@H](NC(=O)Cc3ccccc3)C(=O)N2[C@H]1C(=O)O [Pen, benzylpenicillin, reference compound] | > 500
CC1(C)S[C@@H]2[C@H](NC(=O)COc3ccccc3)C(=O)N2[C@H]1C(=O)O [Phen, phenoxymethylpenicillin, reference compound] | > 500
bacitracin [reference compound] | > 500

Same assay, conditions: 48 h

Compound | MIC KP-E [µM]
CC(=O)Oc1cccc(C(=O)Nc2cnc(Cl)cn2)c1 [Compound 2c-Ac] | > 125
O=C(Nc1cnc(Cl)cn1)c1cccc(O)c1 [Compound 2c] | > 500
CC(=O)Oc1ccc(C(=O)Nc2cnc(Cl)cn2)cc1 [Compound 2d-Ac] | > 125
O=C(Nc1cnc(Cl)cn1)c1ccc(O)cc1 [Compound 2d] | > 500
COc1ccccc1C(=O)Nc1cnc(Cl)cn1 [Compound 2e] | > 125
COc1cccc(C(=O)Nc2cnc(Cl)cn2)c1 [Compound 2f] | > 500
COc1ccc(C(=O)Nc2cnc(Cl)cn2)cc1 [Compound 2g] | > 125
Cc1ccc(C(=O)Nc2cnc(Cl)cn2)cc1 [Compound 2h] | > 125
CCc1ccc(C(=O)Nc2cnc(Cl)cn2)cc1 [Compound 2i] | > 125
O=C(Nc1cnc(Cl)cn1)c1ccccc1Cl [Compound 2j] | > 500
O=C(Nc1cnc(Cl)cn1)c1cccc(Cl)c1 [Compound 2k] | > 125
O=C(Nc1cnc(Cl)cn1)c1ccc(Cl)cc1 [Compound 2l] | > 125
O=C(Nc1cnc(Cl)cn1)c1ccc(Br)cc1 [Compound 2m] | > 125
COc1ccccc1C(=O)Nc1cncc(Cl)n1 [Compound 3e] | > 500
O=C(Nc1cncc(Cl)n1)c1ccccc1Cl [Compound 3j] | > 500
O=C(Nc1cncc(Cl)n1)c1cccc(Cl)c1 [Compound 3k] | > 125
CC1(C)S[C@@H]2[C@H](NC(=O)Cc3ccccc3)C(=O)N2[C@H]1C(=O)O [Pen, benzylpenicillin, reference compound] | > 500
CC1(C)S[C@@H]2[C@H](NC(=O)COc3ccccc3)C(=O)N2[C@H]1C(=O)O [Phen, phenoxymethylpenicillin, reference compound] | > 500
bacitracin [reference compound] | > 500
